Some of the results follow.
Tests used:
Assay in all cases: glycan array binding signal (z-score within array); higher = stronger binding
Conditions in all cases: glycan notation: IUPAC condensed, linker removed
[1] = molecular target: Neu5Ac(a2-3)Gal(b1-3)GlcNAc6S
Outline: (§1)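 Negative Z-scores can be read as non-binding. The Z-score is calculated within each array and then averaged across arrays of one protein sequence at different concentrations or buffers and across linkers. Arrays, 3228 in all, were curated from the Consortium for Functional Glycomics database and kept only where the protein sequence was available.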

[2] = molecular target: Neu5Ac(a2-3)Gal(b1-3)[Fuc(a1-4)]GlcNAc
Outline: as §1

[3] = molecular target: Neu5Ac(a2-3)Gal(b1-3)[Fuc(a1-4)]GlcNAc(b1-3)Gal(b1-3)[Fuc(a1-4)]GlcNAc
Outline: as §1

[4] = molecular target: Neu5Ac(a2-3)Gal(b1-3)[Fuc(a1-4)]GlcNAc(b1-3)Gal(b1-4)[Fuc(a1-3)]GlcNAc
Outline: as §1

[5] = molecular target: Neu5Ac(a2-3)Gal(b1-3)[GlcNAc(b1-6)]GalNAc
Outline: as §1

[6] = molecular target: Neu5Ac(a2-3)Gal(b1-3)[Neu5Ac(a2-6)]GalNAc
Outline: as §1

[7] = molecular target: Neu5Ac(a2-3)Gal(b1-3)[Neu5Ac(a2-6)]GlcNAc(b1-3)[Fuc(a1-3)[Gal(b1-4)]GlcNAc(b1-6)]Gal(b1-4)Glc
Outline: as §1

[8] = molecular target: Neu5Ac(a2-3)Gal(b1-3)]Neu5Ac(a2-3)Gal(b1-4)]GlcNAc
Outline: as §1

Neu5Ac(a2-3)Gal(b1-4)Glc = molecular target: Neu5Ac(a2-3)Gal(b1-4)Glc
Outline: as §1

[9] = molecular target: Neu5Ac(a2-3)Gal(b1-4)GlcNAc
Outline: as §1

[10] = molecular target: Neu5Ac(a2-3)Gal(b1-4)GlcNAc(b1-2)Man
Outline: as §1

[11] = molecular target: Neu5Ac(a2-3)Gal(b1-4)GlcNAc(b1-2)Man(a1-3)[GlcNAc(b1-4)][Neu5Ac(a2-3)Gal(b1-4)GlcNAc(b1-2)Man(a1-6)]Man(b1-4)GlcNAc(b1-4)GlcNAc
Outline: as §1

[12] = molecular target: Neu5Ac(a2-3)Gal(b1-4)GlcNAc(b1-2)Man(a1-3)[Neu5Ac(a2-3)Gal(b1-4)GlcNAc(b1-2)Man(a1-6)]Man(b1-4)GlcNAc(b1-4)GlcNAc
Outline: as §1

[13] = molecular target: Neu5Ac(a2-3)Gal(b1-4)GlcNAc(b1-2)Man(a1-3)[Neu5Ac(a2-3)Gal(b1-4)GlcNAc(b1-2)Man(a1-6)]Man(b1-4)GlcNAc(b1-4)[Fuc(a1-6)]GlcNAc
Outline: as §1

[14] = molecular target: Neu5Ac(a2-3)Gal(b1-4)GlcNAc(b1-2)Man(a1-3)[Neu5Ac(a2-6)Gal(b1-4)GlcNAc(b1-2)Man(a1-6)]Man(b1-4)GlcNAc(b1-4)GlcNAc
Outline: as §1

[15] = molecular target: Neu5Ac(a2-3)Gal(b1-4)GlcNAc(b1-2)[Neu5Ac(a2-3)Gal(b1-4)GlcNAc(b1-4)]Man(a1-3)[GlcNAc(b1-4)][Neu5Ac(a2-3)Gal(b1-4)GlcNAc(b1-2)[Neu5Ac(a2-3)Gal(b1-4)GlcNAc(b1-6)]Man(a1-6)]Man(b1-4)GlcNAc(b1-4)GlcNAc
Outline: as §1

[16] = molecular target: Neu5Ac(a2-3)Gal(b1-4)GlcNAc(b1-2)[Neu5Ac(a2-3)Gal(b1-4)GlcNAc(b1-4)]Man(a1-3)[GlcNAc(b1-4)][Neu5Ac(a2-3)Gal(b1-4)GlcNAc(b1-4)Man(a1-6)]Man(b1-4)GlcNAc(b1-4)GlcNAc
Outline: as §1

[17] = molecular target: Neu5Ac(a2-3)Gal(b1-4)GlcNAc(b1-2)[Neu5Ac(a2-3)Gal(b1-4)GlcNAc(b1-6)]Man(a1-6)[Neu5Ac(a2-3)Gal(b1-4)GlcNAc(b1-2)Man(a1-3)][GlcNAc(b1-4)]Man(b1-4)GlcNAc(b1-4)GlcNAc
Outline: as §1

[18] = molecular target: Neu5Ac(a2-3)Gal(b1-4)GlcNAc(b1-3)Gal
Outline: as §1

[19] = molecular target: Neu5Ac(a2-3)Gal(b1-4)GlcNAc(b1-3)Gal(b1-3)GlcNAc
Outline: as §1

[20] = molecular target: Neu5Ac(a2-3)Gal(b1-4)GlcNAc(b1-3)Gal(b1-4)GlcNAc
Outline: as §1

[21] = molecular target: Neu5Ac(a2-3)Gal(b1-4)GlcNAc(b1-3)Gal(b1-4)GlcNAc(b1-2)Man(a1-3)[Neu5Ac(a2-3)Gal(b1-4)GlcNAc(b1-3)Gal(b1-4)GlcNAc(b1-2)Man(a1-6)]Man(b1-4)GlcNAc(b1-4)GlcNAc
Outline: as §1

[22] = molecular target: Neu5Ac(a2-3)Gal(b1-4)GlcNAc(b1-3)Gal(b1-4)GlcNAc(b1-3)Gal(b1-4)GlcNAc
Outline: as §1

[23] = molecular target: Neu5Ac(a2-3)Gal(b1-4)GlcNAc(b1-3)Gal(b1-4)GlcNAc(b1-3)Gal(b1-4)GlcNAc(b1-2)Man(a1-3)[Neu5Ac(a2-3)Gal(b1-4)GlcNAc(b1-3)Gal(b1-4)GlcNAc(b1-3)Gal(b1-4)GlcNAc(b1-2)Man(a1-6)]GalNAc
Outline: as §1

[24] = molecular target: Neu5Ac(a2-3)Gal(b1-4)GlcNAc(b1-3)Gal(b1-4)GlcNAc(b1-3)GalNAc
Outline: as §1

[25] = molecular target: Neu5Ac(a2-3)Gal(b1-4)GlcNAc(b1-3)Gal(b1-4)GlcNAc(b1-3)[Neu5Ac(a2-3)Gal(b1-4)GlcNAc(b1-3)Gal(b1-4)GlcNAc(b1-6)]GalNAc
Outline: as §1

[26] = molecular target: Neu5Ac(a2-3)Gal(b1-4)GlcNAc(b1-3)Gal(b1-4)GlcNAc(b1-6)[Gal(b1-3)]GalNAc
Outline: as §1

[27] = molecular target: Neu5Ac(a2-3)Gal(b1-4)GlcNAc(b1-3)Gal(b1-4)[Fuc(a1-3)]GlcNAc
Outline: as §1

[28] = molecular target: Neu5Ac(a2-3)Gal(b1-4)GlcNAc(b1-3)GalNAc
Outline: as §1

[29] = molecular target: Neu5Ac(a2-3)Gal(b1-4)GlcNAc(b1-3)[Neu5Ac(a2-3)Gal(b1-4)GlcNAc(b1-6)]GalNAc
Outline: as §1

B1: BT3172pd (Bacteroides thetaiotaomicron) (protein)
chain: MLPLRAEHYYYKQISLKEGLPSNVRCILRDEQGFIWIGTKAGLGKFDGHQLKRYKHQANDPHSLLHNLIYQIAEDKQHNIWILTEKGIARYQQQSNNFTFPTDEEGNYITAYSFCLVPDGILFGGKDRIYKYSYKDSSLRLLQYFNANSFKITALSVWDSKTLLCCSRWTGLYLVDLQTGEHRRPPFDCGPEITSMITDSKNRIWIAPYSGGLRCYSRDGKLSASYTTHNSSLSNDIVLSLAEREEQLWIGTDGGGINILHPETGEISQLEYIPGRENYSLPANSILCLHNDYNNNVWAGSTCNGLISIREVSMKTYTDVVPGNDRGLSNGTVRSLYRQSPDSIWIGTDGGGINLFSPHTEKFTHYSSTWGDKVAFISGFTPGKLLISLFSKGVFVFNPATGEKQPFTIIDKETTTRLCNRGKSVNLYQNTPNTVLFLGDHIYQYHLKEKKFSTITEEEGKDIVGTLVPFDHQENLTYINDIKHIYELDDQTSRLKTVFECYTDTVISSVSHDEQGHFWIGSNFGLIHYDPVLKSRTLVPTNLFTEINMVLCDQKGKVWIGVDNMLFAYFIKEQKFVLFGESNGAIQNEYLPNARLVNEQGDAYIGGVKGMLRIDGQLLLNTSEMPELQLLDITINGESANHEWYNHPAKISVPWNSNISIRIMSREEDIFRQKIYRYQIEGLNNEYTESYNPELVIRSLLPGSYRIMASCTAKDGSWIPDQQVLELTVLPPWYRTHHHHHH
In the case of B1, the “glycan array binding signal (z-score)” value [1] is reported as -0.233, the “glycan array binding signal (z-score)” value [2] is reported as -0.042 and the “glycan array binding signal (z-score)” value [3] is reported as -0.751. For the same binder, the “glycan array binding signal (z-score)” value [4] was -0.349, the “glycan array binding signal (z-score)” value [5] was -0.406 and the “glycan array binding signal (z-score)” value [6] was 0.159. The “glycan array binding signal (z-score)” value [7] was 0.256, the “glycan array binding signal (z-score)” value [8] was -0.007 and the “glycan array binding signal (z-score)” value (Neu5Ac(a2-3)Gal(b1-4)Glc) was 4.78. The “glycan array binding signal (z-score)” value [9] was -0.355, the “glycan array binding signal (z-score)” value [10] was 0.181 and the “glycan array binding signal (z-score)” value [11] was -0.814. The “glycan array binding signal (z-score)” value [12] was 0.618, the “glycan array binding signal (z-score)” value [13] was 0.157 and the “glycan array binding signal (z-score)” value [14] was -0.611. For the same binder, the “glycan array binding signal (z-score)” value [15] was -0.441, the “glycan array binding signal (z-score)” value [16] was -0.247 and the “glycan array binding signal (z-score)” value [17] was -0.581. The “glycan array binding signal (z-score)” value [18] was -0.022, the “glycan array binding signal (z-score)” value [19] was -0.565 and the “glycan array binding signal (z-score)” value [20] was -0.347. The “glycan array binding signal (z-score)” value [21] was -0.54, the “glycan array binding signal (z-score)” value [22] was -0.599 and the “glycan array binding signal (z-score)” value [23] was 0.088. For the same binder, the “glycan array binding signal (z-score)” value [24] was -0.253, the “glycan array binding signal (z-score)” value [25] was -0.065 and the “glycan array binding signal (z-score)” value [26] was 0.094. For the same binder, the “glycan array binding signal (z-score)” value [27] was -0.565, the “glycan array binding signal (z-score)” value [28] was 0.355 and the “glycan array binding signal (z-score)” value [29] was -0.088.

From the supplement of paper PMC8728848
